Here are results for 18 compounds from PubChem BioAssay (NCATS).

Structures are written as SMILES. Several values for one entry are separate records, joined by “and”; a condition that tells them apart may be missing. Equal entries are not always repeated. This is one part of the list. The main result of the screen is listed elsewhere. These columns were measured beside it and carry no call. Compounds called inactive in the main read-out are mostly missing here. The note in brackets gives the kind of curve behind each potency; many fits are weak.

The nature of the assay: qHTS Assay for Lipid Storage Modulators (AID 1519). Particulars: Drosophila S3 cells, BODIPY lipid droplet/cell ratio, laser cytometry, cells loaded with oleic acid. A digest of the protocol:
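Cells seeded at 5,000 per well were treated with compounds over a concentration series and loaded with oleic acid (400 uM, as added). Lipid droplet fluorescence (488 nm excitation, 500-530 nm channel) was read by laser-scanning cytometry and normalized to 20 uM Triacsin C.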
In general terms: Quantitative high-throughput screening tests each substance at several concentrations.

[1] abbreviates: measured here: cell count channel max response.
[2] abbreviates: measured here: cell number channel AC50.
Where [3] appears, read: measured here: lipid (BODIPY) channel AC50.
Where [4] appears, read: measured here: lipid channel max response.
Tags describe the fitted curve by direction and shape.

As a reminder, the AC50 is the midpoint of the concentration-response curve, whichever way the signal moves. On to `O=c1cnc2cnc(N3CCOCC3)nc2n1Cc1cccs1`, for which the max response reads like this: under setting [1], 31%; under setting [4], 38.4%. The AC50 was 1.58 µM [rising, full curve, poor fit] under setting [2] and 1.58 µM [rising, full curve, poor fit] under setting [3].

As for `CCCNC(C)C(=O)Nc1ccccc1C` (configuration not stated), the max response under setting [1] was 14.4% and 48.5%; the max response under setting [4] is 32.1% and 49.8%. The AC50 is 4.47 µM [falling, partial curve, poor fit] under setting [2]; 39.8 µM [rising, single point] and 4.47 µM [falling, partial curve, poor fit] under setting [3].

With `COc1cccc(Nc2ncc3nc(-c4cc(F)cc(F)c4)c(=O)n(CCC#N)c3n2)c1`, the max response by setting is: under setting [1], 15.6%; under setting [4], -10.6%. The AC50 was 0.00891 µM [rising, full curve, poor fit] under setting [2] and 0.126 µM [rising, full curve] under setting [3].

Take `COc1cc(OC)c2c(OC)c(-c3ccc4c(c3)OCO4)c(=O)oc2c1`: the max response under setting [1] was -2.95% and the max response under setting [4] stood at 1.72%. The AC50 is 0.355 µM [rising, full curve, poor fit] under setting [2] and 0.562 µM [rising, full curve] under setting [3].

For the compound `Cn1cccc1C(=O)N1CCC2(CCCN(c3ccc(-c4ccccc4)cc3)C2)CC1`, the max response is 23% under setting [1] and -40.3% under setting [4]. Moreover, the half-maximal activity concentration (AC50) runs as follows: under setting [2], 4.47 µM [rising, full curve, poor fit]; under setting [3], 28.2 µM [falling, single point].

`CN(C)c1ncc2nc(-c3cccc(C#N)c3)c(=O)n(C[C@H]3CCCO3)c2n1`: the max response runs as follows: under setting [1], 31.6%; under setting [4], 42.3%. The AC50 reads like this: under setting [2], 10 µM [rising, partial curve, poor fit]; under setting [3], 5.62 µM [rising, partial curve, poor fit].

Consider `CN(C)c1ncc2nc(-c3cccs3)c(=O)n(C3CC3)c2n1`, for which the max response under setting [1] was 12.9% and the max response under setting [4] is 10.2%. Moreover, the AC50 is 1.26 µM [rising, full curve] under setting [2] and 0.708 µM [rising, full curve, poor fit] under setting [3].

Regarding `COc1ccc2[nH]cc(CCNc3nc(-c4cccnc4)nc4ccccc34)c2c1`, the max response came out at 26.7% under setting [1] and 34.1% under setting [4]. Further, the AC50 runs as follows: under setting [2], 0.1 µM [rising, full curve, poor fit]; under setting [3], 0.1 µM [rising, full curve, poor fit].

Consider `Cc1c(-c2ccc(O)cc2)nn(-c2ccc(O)cc2)c1-c1ccc(OCCN2CCCCC2)cc1`, for which the max response came to 80.6% under setting [1] and 97.2% under setting [4]. The AC50 under setting [2] was 31.6 µM [rising, partial curve] and the AC50 under setting [3] was 31.6 µM [rising, partial curve].

For the compound `CCNc1ncc2nc(-c3cccs3)c(=O)n(CCc3ccccc3)c2n1`, the max response is, setting by setting: under setting [1], 104%; under setting [4], 7.56%. For the same compound, the AC50 was 20 µM [rising, partial curve] under setting [2] and 0.708 µM [rising, full curve] under setting [3].

As for `Cc1c(-c2ccc(Cl)cc2)noc1C1CCN(CCc2ccccc2)CC1`, the max response was 51.5% under setting [1] and 55.2% under setting [4]. Also, the AC50 by setting is: under setting [2], 5.01 µM [rising, full curve, poor fit]; under setting [3], 6.31 µM [rising, full curve, poor fit].

With `O=C1NC(c2cccc([N+](=O)[O-])c2)=CCN1c1ccccc1O`, the max response under setting [1] was 96.4% and 12.3%; the max response under setting [4] is 121% and 15.7%. In addition, the AC50 is, setting by setting: under setting [2], 15.8 µM [rising, partial curve, poor fit] and 22.4 µM [falling, single point]; under setting [3], 15.8 µM [rising, partial curve, poor fit] and 22.4 µM [falling, single point].

Turning to `FC(F)(F)c1ccccc1-c1cc(NCc2cccnc2)ncn1`, the max response is, setting by setting: under setting [1], 39.3%; under setting [4], 44.9%. For the same compound, the AC50 runs as follows: under setting [2], 10 µM [rising, partial curve]; under setting [3], 14.1 µM [rising, partial curve].

For `Cc1ccccc1-c1cncnc1Nc1ccccc1`, the max response by setting is: under setting [1], 31.9%; under setting [4], 41.1%. Moreover, the AC50 under setting [2] was 2.51 µM [rising, partial curve, poor fit] and the AC50 under setting [3] was 1 µM [rising, full curve, poor fit].

Regarding `CC(=O)NCCNc1ncnc2ccc(-c3ccccc3C(F)(F)F)cc12`, the max response under setting [1] is -5.08% and the max response under setting [4] was -7.75%. Moreover, the AC50 under setting [2] was 3.98 µM [rising, single point] and the AC50 under setting [3] was 3.98 µM [rising, single point].

As to `O=c1c(-c2cccs2)nc2cnc(Oc3ccccc3)nc2n1C1CC1`, the max response runs as follows: under setting [1], 16.9%; under setting [4], -6.1%. Also, the AC50 was 3.55 µM [rising, partial curve] under setting [2] and 1.41 µM [rising, partial curve] under setting [3].

Regarding `COc1ccccc1-c1oc2ccccc2c(=O)c1O`, the max response reads like this: under setting [1], 76.2%; under setting [4], 102%. For the same compound, the AC50 reads like this: under setting [2], 31.6 µM [rising, partial curve]; under setting [3], 31.6 µM [rising, partial curve].

With `CN(C)c1ncc2nc(-c3ccccc3)c(=O)n(CCc3ccccc3)c2n1`, the max response by setting is: under setting [1], 34.7%; under setting [4], 39.7%. For the same compound, the AC50 is 0.0891 µM [rising, full curve] under setting [2] and 0.0794 µM [rising, full curve] under setting [3].
